# Data: ChEMBL document CHEMBL4888484, “Replenishing the malaria drug discovery pipeline: Screening and hit evaluation of the MMV Hit Generation Library 1 (HGL1) against asexual blood stage Plasmodium falciparum ,using a nano luciferase reporter read-out” (2022)
# Out of some 150,000 compounds screened, about 540 (0.36%) showed an effect of 50% or more. Some of the results follow.
# System: Plasmodium falciparum
# Test: Primary screen in NF54 nanoGlo assay, in single point, at 2uM, 72h; a lower Z score goes with more inhibition
# Assay type: functional, Erythrocyte
# Settings: timepoint 72 hour
Compound,% Inhibition,Z score
CCOc1ccc(-c2ccnc3c(C(=O)NCCc4c[nH]c5ccc(OC)cc45)cnn23)cc1,22%,0.3
Cc1ccc(-n2nnc(C(=O)N3CCC(c4nc5ccccc5o4)CC3)c2C(C)C)cc1,7%,-0.89
CN1C(=O)Cc2cc(S(=O)(=O)CCC(=O)N3CCn4c3nc3ccccc34)ccc21,-16%,2.13
Cc1nc([C@H]2CC23CCN(S(=O)(=O)N(C)C)CC3)no1,-15%,2.23
CCN(CC1CCN(C2CCN(C)CC2)CC1)C(=O)CCC(=O)c1ccccc1,4%,-0.76
O=C(NCCc1cn[nH]c1)c1cccc(F)c1F,-7%,1.28
CCC[C@@H](C(=O)NCc1cccnc1-n1ccnc1)c1ccccn1,-7%,0.65
CC1(C)CC2(CO1)CC(NC(=O)N[C@H]1C[C@H](c3cccc(F)c3)C1)C2 (stereo not given in full),-5%,0.63
CCOc1ccc(CN[C@H]2CCCO[C@@H]2c2nccn2CC)nc1,-6%,0.59
Cc1cccc2nc(-c3cccnc3)c(NC3CCCCC3)n12,-5%,0.78
Cc1c([C@@H](C)NC(=O)N2CCC(c3nncn3C)CC2)oc2ccccc12,-10%,1.85
CC(C)CCN1C[C@]2(CCCN(C(=O)c3cc[nH]n3)C2)CCC1=O,4%,-0.57
CCn1nc(CN2CCC[C@H](NC(=O)c3ccc(F)c(F)c3)C2)c2c1CCOC2,-7%,0.61
COc1cc2c(cc1NC(=O)N1CCC(F)(F)CC1)n(C)c(=O)n2C,0%,0.05
CN1C[C@@H](NC(=O)CCc2cncs2)CCC1=O,-5%,0.69
CC1(C)CC(=O)C(C(=O)Nc2ccc(Cl)c(Cl)c2)C(=O)C1,-5%,0.88
O=C(CCCS(=O)(=O)Nc1ccccc1)Nc1ccccc1,-3%,0.46
CCn1cc(CN(CCO)c2ccc(C(F)(F)F)c(C#N)n2)cn1,15%,-1.56
Cc1cc(C(=O)Nc2ccc(-n3ccnc3-c3ccncc3)cc2)co1,-16%,2.07
O=C(Cn1c(=O)c2cc(C3CC3)nn2c2ncccc21)NCc1ccc2c(c1)OCO2,4%,-0.68
CC(CS(C)(=O)=O)NC(=O)N1CCCC2CCCC21 (stereo not given),-7%,1.08
CO[C@@H](C)CS(=O)(=O)Nc1ccnc(C#N)c1,1%,-0.13

Compound,% Inhibition,Z score
COc1cccc(CNC(=O)CCc2nc(N3CCCCCC3)c3c(C)noc3n2)c1,16%,-2.44
CNC(=O)[C@H]1CCN(c2ncc(Cl)cn2)C1,1%,-0.13
CCC(c1ccccc1)N1Cc2cc(NS(=O)(=O)c3ccc(F)cc3)ccc2OC(C)C1=O (stereo not given),11%,-2.08
CCOc1ccc([C@@H]2OC(Cc3n[nH]c(=O)[nH]c3=O)=NN2C(C)=O)cc1OC,0%,0.09
CO[C@H]1[C@H](NC(=O)c2ccco2)c2ccccc2C12CCN(Cc1nccn1-c1cccc(C)c1)CC2,-11%,1.58
C[C@H](NC(=O)c1ccc(F)cc1)c1noc(Cc2ccccc2)n1,-3%,0.35
CCOc1ccc(C(=O)OCC(=O)N[C@@H](C)c2ccc3c(c2)OCCO3)cc1OC,-8%,1.08
CN(Cc1nccs1)C(=O)Nc1ccn(Cc2ccncc2)n1,-5%,0.56
CCCN1CCCn2nc(CNC(=O)c3ccnc4ccc(C)cc34)cc2C1,1%,-0.13
CCc1nc(CC)n(CC(=O)Nc2ccnn2C2CCCC2)n1,-3%,0.5
O=C(CNC(=O)N1CCCCCC1)N1CCc2ccccc2C1,-2%,0.32
N#Cc1ccccc1NC(=O)c1cccn2c(-c3ccccc3F)nnc12,-3%,0.42
Cc1ccc(-n2[nH]c(C(=O)NCC3(C(F)(F)F)CC3)cc2=O)cc1,-5%,0.62
COC[C@@H]1[C@H](NC(=O)c2ccc(OC)c(C)c2)[C@H]2CCO[C@H]21,-9%,1.68
COc1cc(=O)n(-c2ccccc2)cc1C(=O)N1CCC(Oc2cccc3cccnc23)CC1,-9%,1.71
O=C(Nc1cccc2c1CCCC2)[C@H]1CCS(=O)(=O)C1,-15%,1.38
Cc1nc(C(=O)NCc2ccncc2)c(C)n1C1CCN(S(C)(=O)=O)CC1,-9%,1.53
O=C(C[C@H]1C(=O)NCCN1C1Cc2ccccc2C1)NCCN1CCOC1=O,-16%,1.43
Cn1nc(C(=O)N2CCOCC2)c2ccccc2c1=O,-12%,1.56
FC(F)(F)c1cc2c(N3CCC(c4cn[nH]c4)CC3)nccn2n1,-8%,1
CCn1nc(C)c(CNC(=O)c2cc(C)nc(C(F)(F)F)n2)n1,13%,-1.86
C[C@@H](CC1CCCC1)C(=O)N1CCC2(CCO2)CC1,-6%,0.87

Compound,% Inhibition,Z score
O=C(NCCC1CCCO1)NC1CC2CCC1C2 (stereo not given),4%,-0.52
CN(C)S(=O)(=O)c1ccc2c(c1)CCCN2,-16%,2.11
Cc1ccc(OCC(=O)Nc2nccnc2C2CC2)cc1,26%,-2.92
CNS(=O)(=O)c1ccc(-c2nccn2CCS(C)(=O)=O)cc1,-9%,1.4
c1cnc(NCCNc2ncccn2)nc1,7%,-1.25
CCc1onc(C)c1NC(=O)Nc1cccc(N(C)C)c1C,-7%,1.03
Cc1nsc(N2CC(O)C(O)C2)n1 (stereo not given),-9%,1.02
CCn1nc(C)cc1C(=O)Oc1cccc(-n2cccn2)c1,-6%,1
COCCN(CC1CC1)C(=O)c1cccn(C)c1=O,0%,0.06
CCN(CC(=O)NCc1cccs1)C(=O)c1sc(NC(=O)C(C)(C)C)cc1C,-1%,0.11
CN(Cc1csc(-c2ccccc2)n1)C(=O)c1cccnn1,3%,-0.52
CC1(C)C[C@@H](c2ccccc2)N(C(=O)c2cn(C3CCOCC3)nn2)C1,2%,-0.26
CN1CCN(C)CC(C(=O)NCCOC2CCCCCC2)C1,-5%,0.94
CCCn1nc(C)cc1CN(CC)C(=O)c1nn(C)c2c1COCC2,-5%,0.59
c1cnn(-c2ccc(OCCO[C@@H]3CCCCO3)cc2)c1,-15%,2.03
Cc1nc(-c2ncc(C(=O)N3Cc4ccccc4C3)c(O)n2)cs1,-11%,1.37
CC(C)CC(=O)Nc1nnc(CC(C)(C)C)s1,-14%,2.71
O=C(CCc1ccc(Br)cc1)NCC1(O)CCOCC1,-6%,0.95
O=C1CCC(=O)N1CCCn1nc(C(F)(F)F)cc1C1CC1,19%,-2.43
COc1ccc(Cl)cc1Cn1cnc2oc(C)c(C(=O)O)c2c1=O,-15%,3.14
COC(=O)[C@H](CC(C)C)NS(=O)(=O)NCc1ccccc1,-10%,1.43
C=CCNC(=O)c1ccc(Oc2nccnc2N2CCCCC2)cc1,-10%,1.11

Compound,% Inhibition,Z score
CCN1CCC(CC(=O)N[C@H](Cc2cc(F)c(F)c(F)c2)C(=O)O)CC1,-9%,1.45
O=S(=O)(Cc1ccon1)N(C[C@H]1CCOC1)C1CC1,-10%,2.05
CN(C)[C@@H](C(=O)N1CCC(O)(CO)CC1)c1ccc2c(c1)OCO2,-7%,0.65
COc1ccc(-c2c(C)noc2NC(C)=O)cc1S(=O)(=O)NC1CCCC1,-14%,2.06
CCCCc1ccc(-n2nc3cc(Cl)c(NC(=O)C(c4ccccc4)c4ccccc4)cc3n2)cc1,-5%,0.79
Cc1ccc(N2C(=O)N[C@H]3C[C@]2(C)Oc2ccc(Cl)cc23)c(C)c1,-5%,0.84
COc1ncccc1C(=O)NCc1ccc(N2CCCC2)cc1,-9%,0.78
CC(C)(C)n1ncc2c(=O)[nH]c(NCC=Cc3ccccc3)nc21,3%,-0.5
Cc1cccc(Cn2nc(CC(N)=O)nc2CCn2cncn2)c1,7%,-0.67
O=C(CCn1nc2ccccn2c1=O)Nc1cnccc1Nc1ccc(F)cc1,-25%,4.76
CN1CCC[C@H](C(=O)NCCc2ccnn2C)C1,-8%,1.09
O=C(OCCOc1cccnc1)c1ccn2cncc2c1,-12%,1.39
NC(=O)c1ccc(CNC(=O)C2CC(O)(C3CCCCC3)C2)o1 (stereo not given),-10%,1.27
COc1ccc(Nc2nc(N3CCOCC3)c3cnn(-c4ccccc4)c3n2)cc1,16%,-2.02
CCOCCCNC(=O)Nc1cccc(Br)c1,23%,-2.92
COCCCC(=O)NC[C@H](O)c1c(Cl)cccc1Cl,6%,-0.77
CCC[C@H](C)N1CC2(CCN(Cc3cnc(C(C)C)nc3)CC2)OC1=O,-9%,1.05
CC(O)CCCNC(CC1CCN(C(=O)OC(C)(C)C)CC1)c1cccnc1 (stereo not given),-1%,0.15
Cc1ccc(C(=O)N2CCCC[C@H]2c2nnc(-c3ccncc3)[nH]2)cn1,-12%,2.36
